Results reported in the RNAGym collection of RNA variant scans (doi:10.7554/elife.90254).
The source gives no read counts; variants with many changes may rest on few reads.

B1: OR4K15 (parent)
chain: GUUAACGGUCAUAGGCCAUGGAAACUAGGAGCACCAUUUCGCUGCCAGUGAAGAAAUGAACAAAGAAAAUCUGGGCCAGGCAGGCAUCAAAAGAAAUAGUCUUGCGCUCAACCAGAAAGUCUGUAAUCAUUUUAAGGGUA

Variants of: B1
Assay: self-cleavage, relative activity (ratio to wild type); higher = more cleavage; in vitro, sequencing; the parent is a self-cleaving ribozyme

Variant | self-cleavage
GUUAACGGUCAUAGGCCAUGGAAACUAGGAGCGCCACUUCGCUGCCAGUGAAGAAAUGAGCAAAGAAAAUCUGGGCCAGGCAGGCAUCAAAAGAAAUAGUCUUGCGCUCAACCAGAAAGUCUGUAAUCAUUUUGAGGGUA [A33G U37C A60G A134G] | 1.05
GUUAACGGCCAUAGGCCAUGGUAACUAGGAGCACCAUUUCGCUGCCAGUGAAGAAAUGAACAAAGAAAAUCUGGGCCAGGCAGGCAUCAAAAGAAAUAGCCUUGCGCUCAACCAGAAAGUCUGUAAUCAUUUUAAGGGUA [U9C A22U U100C] | 2.36
GUUAACGGUCAUAGGCCAUGGAAACUAGGAGCACCAUUUCGCCGCCAGUGAAGAAAUGAACAAAGAAGAACUGGGCCAGGCAGGCAUCAAAAGAAAUAGCCCUGCGCUCAACCAGAAAGUCUGUAAUCAUUUUAAGGGUA [U43C A68G U70A U100C U102C] | 0.85
GUUAACGGUCAUAGGCCAUGGAAACUAGGAGCCCCAUUUCGCUGCCAGUGAAGAAAUGAACAAAGAAGAUCUGGGCCAGGCGGGCAUCAAAAGAAAUAGUCUUGCGCUCAACCAGAAAGUCUGUAAUCAUUUUAAGGGUA [A33C A68G A82G] | 0.56
GUUAACGGUCAUAGGCCAUGGAAACUAGGAGCACCAUUCCGCUGCCAGUGAAGAAAUGAACAAAGAAAAUCUGGGCCAGGCAGGUAUCAAAAGAAAUAGUCUUGCGCUCAACCAGAAAGUCUGUAAUCGUUUUAAGGGUA [U39C C85U A129G] | 1.05
GUUAACGGUCAUAGGCCAUGGAAACUAGGAGCACCAUUUCGCUGCCAGUGAAGAAAUGAACAAAGAAAAUCUGGGCCAGGCAGGCAUCAAAGGAAAUAGUCUCGCGCUCAACCAGAAAGUCUGUAAUCAUCUUAAGGGUA [A92G U103C U131C] | 0.19
GUUAACGGUCAUAGGCCAUGGAAACUAGGAGCACCAUUUCGCUGCCAGGGAAGAGAUGAACAAAGAAAAUCUGGGCCAGGCAGGCAUCAAAAGAGAUAGUCUUGCGCUCAACCAGAAAGUCUGUAAUCAUUUUAAGGGUA [U49G A55G A95G] | 1.01
GUUAACGGUCAUAGUCCAUGGAAACUAGGAGCACCAUUUCGCUGCCAGUGAAGAGAUGAACAAAGAAAAUCUGGGCCAGGCAGGCAUCAGAAGAAAUAGUCUUGCGCUCAACCAGAAAGUCUGUAAUCAUUUUAAGGGUA [G15U A55G A90G] | 0.86
GUUAACGGUCAUAGGCAAUGGAAACUAGGAGCACCACUUCGCUGCCAGUAAAGAAAUGAACAAAGAAAAUCUGGGCCAGGCAGGCAUCAAAAGAAAUAGUCUUGCGCUCAACCAGAAAGUCUGUAAUCAUUUUAAGGGUA [C17A U37C G50A] | 1.28
GUUAACGGUCAUAGGCCAUGGAAACUAGGAGCACCAUCUCGCUGCCAGGGAAGAGAUGAACAAAGAAAAUCUGGGCCAGGCGGGCAUCAAAAGAAAUAGUCUUGCGCUCGACCAGAAAGUCUGUAAUCAUUUUAAGGGUA [U38C U49G A55G A82G A110G] | 0.1
GUUAACGGUCAUAGGCCAUGGAAACUAGGAGCACCAUCUCGCUGCCAGUGAAGAAAUGAACUAAGAAAAUCUGGGCCAGGCAGGCAUCAAAAGAAAUAGUCUUGCGCUCAACCAGAAAGUCUGUAAUAAUUUUAAGGGUA [U38C A62U C128A] | 1.15
GUUAACGGUCAUAGGCCAUGGAAACUAGGAGCACCAUCUCGCUGCCAGAGAAGAAAUGAACAAAGAAAAUCUGGGCCAGGCAGGCAUCAAGAGAAAUAGUCUUGCGCUCAACCAGAAAGUCUGUAAUCACUUUAAGGGUA [U38C U49A A91G U130C] | 0.41
GUUAACGGUCAUAGGCCAUGGAAACUAGGAGCACCAUUUCGCUGCCAGUGAAGAAAUGAACAAAGAAAAUCCGGGCCAGGCAGCCGUCAAAAGAAAUAGUCUUGCGCUCAACCAGAAAGUCUGUAAUCUUUUUAAGGGUA [U72C G84C A86G A129U] | 0.02
GUUAACGGUCAUAGGCCAUGGAAACUAGGAGCACCAUUUCGCUGCCAGUGAAGAAAUGAACAAAGAAAAUCUGGGCCAGGCAGGCACCAAAAGAAAUAGUCUUGCGCUCAACCAGAGAGUCUGUAAUCAUUUUGAGGGUA [U87C A117G A134G] | 1.67
GUUAACGGUCAUAGGCCAUGGAAACCAGGAGCACCGUUUCGCUGCCAGUGAAGAAAUGAACAAAGAAAAUCCGGGCCAGGCAGGCAUCAAAAGAAAUAGUCUUGCGCUCAACCAGAAAGUCUGUAAUCAUUUUAAGGGUA [U26C A36G U72C] | 0.2
GCUAACGGUCAUAGGCCAUGGAAACUAGGAGCACCAUUUCGCCGCCAGCGAAGAAAUGAACAAAGAAGGUCUGGGCCAGGCAGGCAUCAAAAGAAAUAGUCUGGCGCUCAACCAGAAAGUCUGUAAUCAUUUUAAGGGUA [U2C U43C U49C A68G A69G U103G] | 0.08
GUUAACGGUCACAGGCCAUGGAAACUAGGAGCACCAUUUCGCUGCCAGAGAAGAAAUGAACAAAGAAAAUCCGGGCCAGGCAGGCAUCAAAAGAAAUAGUCUUGCGCUCAACCAGAAAGUCUGUAAUCAUUUUAAGGGUA [U12C U49A U72C] | 0.4
GUUAACGGUCAUAGGCCAUGGAAACUAGGAGCACCGUUUCGCUGCCAGUGAAGGAAUGAACAAAGAAAAUCUGGGCCCGGCAGGCAUCAAAAGAAAUAGUCUUGCGCUCAACCAGAAAGUCUGUAAUCAUUUUAAGGGUA [A36G A54G A78C] | 0.32
GUUAACGGUCAUAGGUCAUGGAAACUAGGAGCACCAUUUCGCUGCCAGUGAAGAAAUGUACAAAGAAAAUCUGGGCCAGGCAGGCAUCAAAAGAAGUAGUCUUGCGCUCAGCCAGAAAGUCUGUAAUCAUUUUAAGGGUA [C16U A59U A96G A111G] | 0.08
GUUAACGGUCAUAGGCCAUGGAAACUAGGAGCACCAUUUCGCUGCCGGUGAAGAAACGAACAAAGAAAAUCUGGGCCAGGCAGGCAUCAAAAGAAAUAGUCUUGCGCUCAACCAGAAAGUCUGUAAUCAUUUUAAGAGUA [A47G U57C G137A] | 0.71
GUUAACGGUCGUAGGCCAUGGAAACUAGGAGCACCAUUUCGCUGCCAGAGAAGAAAUGAACAAAGAAAAUCUGGGCCAGGCAGGCAUCAAAAGAAAUAGUCUUGCGCUCAGCCAGAAAGUCUGUAAUCAUUAUAAGGGUA [A11G U49A A111G U132A] | 0.09
